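1) Cells in 96-well plates. 2) Compound, 48 h, 5 concentrations. 3) Linear interpolation between surrounding doses. 4) Unreached endpoint = highest concentration. GI50 = concentration required for 50% inhibition of growth. TGI denotes the concentration required for complete inhibition of growth.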 Square brackets hold non-standard residues; d marks the D form. Peptide text beside a SMILES is read from it. * marks the point of attachment. Decanoyl = CCCCCCCCCC(=O)*; Leu(ol) = CC(C)C[C@H](N)CO; Iva = CC[C@](C)(N)C(=O)O; Aib = CC(C)(N)C(=O)O
Test system: NCI-H322M lung
Test: DTP human tumour cell line panel, 48 h

Point of comparison: CCCCCCCCCC(=O)N[C@@](C)(CC)C(=O)N1CCC[C@H]1C(=O)N[C@@H](CC(C)C)C(=O)N[C@@](C)(CC)C(=O)N[C@@H](CCC(N)=O)C(=O)N[C@H](CCC(N)=O)C(=O)NC(C)(C)C(=O)NC(C)(C)C(=O)N[C@@H](CCC(N)=O)C(=O)N[C@H](CC(C)C)C(=O)N[C@H](CO)CC(C)C (Decanoyl-[Iva]PL[Iva]Q[dQ][Aib][Aib]Q[dL][Leu(ol)]), GI50 6 µM. Against it:
- CCOC(=O)c1ccc(NC2=C(Cl)C(=O)c3nc(C)ccc3C2=O)cc1 — 2.8-fold higher, 16.6 µM
- COC(=O)c1ccc(NC2=C(Cl)C(=O)C(C)=C(C)C2=O)cc1 — higher, > 100 µM

Point of comparison: CCCCCCCCCC(=O)N[C@@](C)(CC)C(=O)N1CCC[C@H]1C(=O)N[C@@H](CC(C)C)C(=O)N[C@@](C)(CC)C(=O)N[C@@H](CCC(N)=O)C(=O)N[C@H](CCC(N)=O)C(=O)NC(C)(C)C(=O)NC(C)(C)C(=O)N[C@@H](CCC(N)=O)C(=O)N[C@H](CC(C)C)C(=O)N[C@H](CO)CC(C)C (Decanoyl-[Iva]PL[Iva]Q[dQ][Aib][Aib]Q[dL][Leu(ol)]), TGI 18.9 µM. Against it:
- CCOC(=O)c1ccc(NC2=C(Cl)C(=O)c3nc(C)ccc3C2=O)cc1 — 1.7-fold higher, 33 µM
- COC(=O)c1ccc(NC2=C(Cl)C(=O)C(C)=C(C)C2=O)cc1 — higher, > 100 µM

From PubChem BioAssay (NCI)
